Assay results reported in PubChem BioAssay AID686978 (National Center for Advancing Translational Sciences (NCATS), 2013).
Screen size: about 420,000 compounds; about 64,000 (15%) were called active. The shares of active, inactive and inconclusive entries below differ from those in the screen. Calls come from the whole dose curve; as a rule, active = well fitted inhibition curve with a large enough effect; inconclusive = small, poorly fitted or top-dose-only effect; inactive = flat fitted curve, though single readings scatter. No potency is given beside an inconclusive call; the fits are too rough.

assay: qHTS for Inhibitors of human tyrosyl-DNA phosphodiesterase 1 (TDP1): qHTS in cells in absence of CPT; conditions: DT40 Tdp1-/- hTDP1 cells, no CPT, ATP luminescence, 48 h; activity change, negative = growth inhibition: at 46.2 µM (top of the series) unless noted; note: nearly all actives have a fitted effect of over 55% in size
Procedure, shortened: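 Chicken DT40 Tdp1-/- cells complemented with human TDP1, screened without camptothecin (DMSO vehicle only), 400 cells/well. Compounds pin-transferred, cells incubated at 37 °C for at least 48 hr. Growth read as ATP-dependent luminescence (CellTiter-Glo, 30 min at RT).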
% is set by controls: 0 for no effect and ±100 for the full control effect; potency is the fitted concentration of half-maximal effect; tags give direction and shape of the fitted curve.

| Structure (SMILES) | Potency | activity change, negative = growth inhibition |
| --- | --- | --- |
| Cc1ccc(C(O)c2ncc(-c3ccc(F)cc3)[nH]2)c(C)c1 (centres undefined) | inconclusive [inhibitor, partial curve, poor fit] | – |
| COc1ccc(CC(=O)N/N=C/C=C/c2cccc([N+](=O)[O-])c2)cc1OC | inconclusive [inhibitor, single point] | – |
| CC1CCCCN1CCNC(=O)C1CCCN(S(=O)(=O)c2cccc3nsnc23)C1 (centres undefined) | inactive | – |
| COc1ccc2[nH]c3c(c2c1)CCN1C(=O)C(CC(=O)NCCCn2ccnc2)C[C@H](C(=O)N2CCCCC2)[C@@]31CCc1ccccc1 (some centres undefined) | – | inconclusive: -30.7% [inhibitor] |
| CC(=O)NCCNc1nc2cc(-c3cnn(CCC(C)C)c3)sc2c(=O)n1C | inconclusive [inhibitor, single point] | – |
| Cc1cc(C)c(S(=O)(=O)NCc2csc(C)n2)c(C)c1 | inactive | – |
| CC1=NN(c2ccc(C(F)(F)F)cn2)C(=O)C1 | inconclusive [inhibitor, single point] | – |
| COc1ccccc1-c1sc2cc3c(cc2c1C#Cc1ccccn1)OCO3 | inconclusive [inhibitor, single point] | – |
| CCCOc1ccc(CNC(=O)c2[nH]c3cc(OC)ccc3c2Sc2ccccc2)cc1 | inconclusive [inhibitor, single point] | – |
| O=C(COc1ccccc1F)Nc1cc(S(=O)(=O)Nc2cccc(Cl)c2)ccc1O | inconclusive [inhibitor, single point] | – |
| O=C(NC1CCCCC1)C(c1ccc2ncccc2c1)N(Cc1ccc(F)cc1)C(=O)c1cccs1 (centres undefined) | inconclusive [inhibitor, single point] | – |
| COCC(C)n1c(C)cc(C(=O)CN2C(=O)NC(Cc3c[nH]c4ccccc34)C2=O)c1C (centres undefined) | inconclusive [inhibitor, partial curve] | – |
| COc1ccc(Nc2ncnc3c2nc2n3CCCCC2)cc1 | inconclusive [inhibitor, partial curve] | – |
| C=CCn1c(C2CC(=O)N(c3ccc(C)cc3)C2)nc2ccccc21 (centres undefined) | inconclusive [inhibitor, single point] | – |
| CCCCNC(=O)CCCCC(=O)N/N=C/c1cccc(Cl)c1 | inconclusive [inhibitor, single point] | – |
| Cc1ccccc1-c1nn(-c2ccc(F)cc2F)cc1CNCC(C)O (centres undefined) | inconclusive [inhibitor, single point] | – |
| O=C(Nc1ccc(N2CCCC2)cc1)C(Cl)c1ccccc1 (centres undefined) | active: 13 µM | – |
| CC1OC1c1ccc(-c2ccc(C3OC3C)cc2)cc1 (centres undefined) | inconclusive [inhibitor, single point] | – |
| O=C(NCc1ccc(OC(F)(F)F)cc1)C1CC(c2cccc(F)c2)=NO1 (centres undefined) | inactive | – |
| CN(C)CCSc1nc(-c2ccccc2)nc2c1CCCC2 | active: 16.4 µM | – |
| Cc1ccc(-c2nnc(N3CCN(CCO)CC3)c3ccccc23)cc1 | inconclusive [inhibitor, partial curve] | – |
| COc1cccc2c1OCC(C(=O)NCc1ccc(Cl)cc1Cl)=C2 | inactive | – |
| CCOc1cc(/C=N/NC(=O)c2ccccn2)ccc1OC(=O)c1cccs1 | inactive | – |

| Structure (SMILES) | Potency | activity change, negative = growth inhibition |
| --- | --- | --- |
| Nc1nc(-c2ccc(Oc3ccccc3)cc2)cs1 | inconclusive [inhibitor, single point] | – |
| CC(=O)Nc1ccc(N(C(=O)Cn2nnc3ccccc32)C(C(=O)NCc2ccccc2)c2ccc(C)cc2)cc1 (centres undefined) | inconclusive [inhibitor, single point] | – |
| COc1ccc(N=CC2CCCCC2=O)c([N+](=O)[O-])c1 (centres undefined) | inconclusive [inhibitor, single point] | – |
| CCc1c(C)nc2[nH]nc(-c3ccccc3)n2c1=O | inconclusive [inhibitor, single point] | – |
| Cc1ccc(C(=O)C2CCN(CC(=O)Nc3ccccc3C)CC2)cc1 | inconclusive [inhibitor, single point] | – |
| Cn1c(=O)c2cc(NC(=S)NC3CC3)ccc2n1Cc1ccc(F)cc1 | inactive | – |
| COc1ccc(N(C(=O)c2cccnc2)S(=O)(=O)c2ccc(F)cc2)cc1 | inconclusive [inhibitor, partial curve] | – |
| COc1ccc(C(=O)NCCNc2nc3cc(C)cc(C)c3cc2C#N)cc1 | inconclusive [inhibitor, single point] | – |
| Nc1cc(=O)[nH]c(SCC(=O)N2CCCC2)n1 | inactive | – |
| CN1C(=O)/C(=C/c2ccc3c(c2)OCO3)N=C1c1ccccc1 | inactive | – |
| Cc1c(-c2ccccc2)sc2nc[nH]c(=S)c12 | inconclusive [inhibitor, single point] | – |
| CCOC(=O)C1=CCC(c2ccc(F)cc2)N(S(=O)(=O)c2ccc(C)cc2)C1 (centres undefined) | active: 18.4 µM | – |
| C=CCn1c(SCC(=O)NC2CCCC2)nnc1-c1ccccn1 | inconclusive [inhibitor, single point] | – |
| COc1ccc2cc(/C=N/NC(=O)c3ccc(CN(c4cccc(Cl)c4Cl)S(C)(=O)=O)cc3)c(Cl)nc2c1 | active: 14.6 µM | – |
| O=C1N/C(=N\N=C\c2ccco2)SC1Cc1ccccc1[N+](=O)[O-] (centres undefined) | inconclusive [inhibitor, single point] | – |
| COc1cc(CN2CCC(n3nccc3NC(=O)c3ccccc3OC)CC2)ccc1F | inconclusive [inhibitor, single point] | – |
| COc1cc(/C=N/NC(=O)C(=O)/C=C2\NC3(CCCC3)Cc3ccccc32)ccc1O | inconclusive [inhibitor, single point] | – |
| O=C(c1cccs1)N1CCN(Cc2nc(-c3ccccc3)no2)CC1 | inconclusive [inhibitor, single point] | – |
| Cc1cn(CC(=O)NCc2nc3ccccc3[nH]2)c(=O)[nH]c1=O | inactive | – |
| Cc1cccc(S(=O)(=O)c2c(N)n(Cc3ccco3)c3nc4ccccc4nc23)c1 | inconclusive [inhibitor, single point] | – |
| COc1cc(C)c(CN2CCN(C(=O)CCC(=O)c3ccc(C)s3)CC2)cc1OC | inconclusive [inhibitor, single point] | – |
| CC(C)(C)c1ccc(N/N=C(\C#N)S(=O)(=O)C(C)(C)C)cc1 | inconclusive [inhibitor, single point] | – |
| Cc1cc(SCC(=O)N/N=C/c2ccc(O)c(O)c2)c(C)cc1Br | active: 16.4 µM | – |

| Structure (SMILES) | Potency | activity change, negative = growth inhibition |
| --- | --- | --- |
| CCC(CC)CN1C(Nc2ccccc2)=NC[C@@H]1CC(C)C | inconclusive [inhibitor, single point] | – |
| CCc1ccccc1N1CSC2=C(C#N)C(c3cc(OC)c(OC)cc3OC)CC(=O)N2C1 (centres undefined) | inconclusive [inhibitor, partial curve] | – |
| CCN(CC(=O)NCC(=O)Nc1ccc(Br)cc1C)Cc1ccccc1 | inconclusive [inhibitor, partial curve] | – |
| COc1ccc(C)cc1N(C)C(=O)CCc1nc(-c2ccccc2F)no1 | inconclusive [inhibitor, single point] | – |
| COc1ccc(C)cc1S(=O)(=O)Nc1ccc2c(c1)N(C(C)=O)CCC2 | active: 16.4 µM | – |
| CCCCNC(=O)/C(C#N)=C/c1ccc2c(c1)OCCO2 | inconclusive [inhibitor, partial curve] | – |
| Cc1cc(NC(=O)CN2CCC(C)CC2)nc2c1c(=O)oc1ccccc12 | active: 20.6 µM | – |
| COc1cc(C(=O)Nc2c(C)cc(C)cc2C)c(Br)c(OC)c1OC | inconclusive [inhibitor, single point] | – |
| CCOC(=O)c1ccccc1N=N/C(C(C)=O)=C(/C)O | inconclusive [inhibitor, partial curve, poor fit] | – |
| COc1cccc(OCc2cc(C(=O)NCC3CCCCC3)no2)c1 | inactive | – |
| CCOC(=O)C(Cc1c[nH]c2ccccc12)NC(=O)COc1ccc(CC)cc1 (centres undefined) | inconclusive [inhibitor, single point] | – |
| CCC(Oc1ccccc1)C(=O)Nc1ccc(S(=O)(=O)Nc2cc(C)on2)cc1 (centres undefined) | inactive | – |
| C=C(C)C1CCC(C)=C1COC(=O)Nc1ccccc1 (centres undefined) | inconclusive [inhibitor, single point] | – |
| COc1ccc(CC(=O)NCc2nc3cccnc3n2Cc2ccccc2)cc1 | inconclusive [inhibitor, single point] | – |
| O=C(/C=C/c1ccc(Cl)cc1Cl)c1cccnc1 | active: 14.6 µM | – |
| Cc1cc(=O)[nH]c2c(N=Nc3ccc(O)cc3)c(N)nn12 | inconclusive [inhibitor, single point] | – |
| CC1=CC(C)(C)N(C(=O)CSc2nnc(N)s2)c2ccccc21 | inactive | – |
| CC(C)(C)NNC(=S)Nc1cccc(F)c1 | active: 14.6 µM | – |
| CCc1nc2ccc(C(=O)Nc3cccc(NS(C)(=O)=O)c3)cn2c1N(CC)CCOC | inconclusive [inhibitor, single point] | – |
| C[C@H](CO)N1C[C@H](C)[C@@H](CN(C)S(=O)(=O)c2ccc(C#N)cc2)OCc2cnnn2CCCC1=O | inactive | – |
| Cc1ccc(-c2nn(-c3ccccc3Cl)cc2C(=O)NCC2CCCO2)cc1 (centres undefined) | inconclusive [inhibitor, single point] | – |
| COc1cccc(N2CCN(S(=O)(=O)c3cc(-c4cc(C)no4)ccc3C)CC2)c1 | active: 18.4 µM | – |
| CCc1cccc2c(C#N)cn(CCOc3ccccc3OC)c12 | inconclusive [inhibitor, single point] | – |
